Laboratory results taken from PMC4336329 (PLoS ONE, 2015).
The whole screen tested about 310,000 compounds, of which about 2,200 (0.71%) showed an effect of 50% or more. Effects have a minus sign here. This is one part of the list.

Each compound was assayed against human ether-à-go-go-related gene (hERG) potassium channel (human, UniProt Q12809) (assay: primary screen, population patch clamp on CHO cells stably expressing hERG).
human ether-à-go-go-related gene (hERG) potassium channel, sequence (Q12809 whole entry, looked up): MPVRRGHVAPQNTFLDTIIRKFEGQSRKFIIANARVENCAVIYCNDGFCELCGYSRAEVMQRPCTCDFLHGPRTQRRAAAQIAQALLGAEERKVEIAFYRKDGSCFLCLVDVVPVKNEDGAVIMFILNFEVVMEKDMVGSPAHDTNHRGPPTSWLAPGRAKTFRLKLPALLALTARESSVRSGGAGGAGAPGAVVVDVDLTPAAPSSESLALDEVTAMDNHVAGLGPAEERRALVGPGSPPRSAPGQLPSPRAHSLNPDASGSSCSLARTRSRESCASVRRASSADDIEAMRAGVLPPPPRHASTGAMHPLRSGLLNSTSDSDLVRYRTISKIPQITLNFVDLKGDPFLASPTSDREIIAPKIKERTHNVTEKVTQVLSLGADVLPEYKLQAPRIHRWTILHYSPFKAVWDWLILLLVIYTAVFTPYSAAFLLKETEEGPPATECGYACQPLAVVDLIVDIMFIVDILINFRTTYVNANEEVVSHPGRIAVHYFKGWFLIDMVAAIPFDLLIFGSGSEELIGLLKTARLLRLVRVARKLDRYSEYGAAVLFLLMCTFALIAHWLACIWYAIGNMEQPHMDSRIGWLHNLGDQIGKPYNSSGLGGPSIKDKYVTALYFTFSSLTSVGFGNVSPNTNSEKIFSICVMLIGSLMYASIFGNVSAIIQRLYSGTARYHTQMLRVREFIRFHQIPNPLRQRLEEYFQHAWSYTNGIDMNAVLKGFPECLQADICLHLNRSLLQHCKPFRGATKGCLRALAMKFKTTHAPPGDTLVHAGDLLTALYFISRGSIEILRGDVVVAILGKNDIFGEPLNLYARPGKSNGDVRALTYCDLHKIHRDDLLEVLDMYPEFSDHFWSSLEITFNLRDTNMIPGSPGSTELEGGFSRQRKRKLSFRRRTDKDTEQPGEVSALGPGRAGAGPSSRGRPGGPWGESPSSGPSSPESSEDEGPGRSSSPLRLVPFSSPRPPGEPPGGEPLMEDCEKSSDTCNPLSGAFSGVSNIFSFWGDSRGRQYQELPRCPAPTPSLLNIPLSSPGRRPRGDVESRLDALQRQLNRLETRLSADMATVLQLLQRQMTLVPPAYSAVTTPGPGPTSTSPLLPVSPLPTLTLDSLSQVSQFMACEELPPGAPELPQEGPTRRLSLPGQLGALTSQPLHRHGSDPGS

Going from `O=C(Nc1ccc(N2CCOCC2)c(Cl)c1)c1ncn[nH]1` to `Clc1nc(N2CCOCC2)ncc1Br`, the “hERG current change (%, negative = inhibition) at 1uM” value rises from 5.58% to 14.4%.

Compared with `CCc1cc2c(-n3nc(C)cc3C)ncnc2s1`, `Cc1cc(C)n2nc(-c3cccc(Br)c3)cc2n1` is higher in “hERG current change (%, negative = inhibition) at 1uM” value: 10.7% for the first, 12.3% for the second.

First: COc1ccc(CNC(=O)CCCn2nc(C)c([N+](=O)[O-])c2C)cc1OC
Second: COc1ccc(NC(=O)Cn2nnc(C(=O)NCCc3ccc(OC)c(OC)c3)c2N)c(OC)c1
The “hERG current change (%, negative = inhibition) at 1uM” value of the first is higher: 7.31% for the first, -1.5% for the second.

First: Cc1oc(C(C)(C)C)cc1C(=O)Nc1ccc2c(c1)OCO2
Second: CC(c1ccccc1)c1nnc(NC(=O)c2ccc3c(c2)OCO3)s1 (stereo not drawn)
The “hERG current change (%, negative = inhibition) at 1uM” value of the first is higher: 13.9% for the first, 6.28% for the second.

First: CCN1CCN(C(=S)Nc2ccc3nc(N4CCN(C)CC4)cc(C)c3c2)CC1
Second: COc1ccccc1N1CCN(C2CCCN(C(=O)CN3CCCCC3=O)C2)CC1 (stereo not drawn)
The “hERG current change (%, negative = inhibition) at 1uM” value of the first is lower: 8.22% for the first, 11.9% for the second.

Compared with `CCOC(=O)c1c(-c2ccc(F)cc2)cn2ccccc12`, `CCOC(=O)C(=O)NCC(c1cccs1)S(=O)(=O)c1ccc(F)cc1` (stereo not drawn) is lower in “hERG current change (%, negative = inhibition) at 1uM” value: 10% for the first, -5.9% for the second.

Compared with `COC(=O)[C@H](CCSC)NC(=O)NCc1cccs1`, `CCCCN(CCCC)CCNC(=O)CNC(=O)c1cccs1` is lower in “hERG current change (%, negative = inhibition) at 1uM” value: 16.4% for the first, 5.88% for the second.

Going from `CSc1ccccc1NC(=O)c1csc(C)c1` to `Cc1cc(SC(C)C(=O)O)nc2ccccc12` (stereo not drawn), the “hERG current change (%, negative = inhibition) at 1uM” value rises from 4.05% to 5.41%.

First: Cc1ccc(OCCC(=O)Nc2c(C)n(C)n(-c3ccccc3)c2=O)cc1
Second: CCC/C(=C1/c2ccccc2C(=O)N1c1ccccc1)c1ccc2c(c1)OCO2
The “hERG current change (%, negative = inhibition) at 1uM” value of the first is lower: 3.64% for the first, 20% for the second.

Going from `O=C(C(Cl)Cl)N1CCN(Cc2ccccc2)CC1` to `O=C(C1=C[C@@H](c2ccc(Br)cc2)C[C@@H](OCCCCO)O1)N1CCN(Cc2ccccc2)CC1`, the “hERG current change (%, negative = inhibition) at 1uM” value falls from 5.56% to -22.5%.

Going from `O=C(CN1CCOCC1)Nc1ccccc1C(=O)O` to `C=CCc1ccccc1OCC(O)CN1CCOCC1` (stereo not drawn), the “hERG current change (%, negative = inhibition) at 1uM” value rises from -7.05% to 13.4%.

Going from `Cc1noc(C)c1C(=O)OC(C)C(=O)Nc1ccc(S(=O)(=O)NC(C)C)cc1` (stereo not drawn) to `Cc1ccc(S(=O)(=O)Nc2ccc(C(N)=O)cc2)cc1[N+](=O)[O-]`, the “hERG current change (%, negative = inhibition) at 1uM” value falls from 5.92% to 4.5%.

Compared with `CCOC(=O)N1CCC(NC(=O)c2ccc(CNS(=O)(=O)c3ccc(F)cc3)cc2)CC1`, `COc1cccc(C(=O)N2CCC(C(=O)NCc3ccc(C)cc3)CC2)c1` is lower in “hERG current change (%, negative = inhibition) at 1uM” value: -9.59% for the first, -23.6% for the second.

First: COc1ccc(Cl)cc1NC(=O)CN(C)C(=O)CN1C(=O)NC2(CCCC2)C1=O
Second: COc1ccc(C)cc1NC(=O)c1cc2c(CO)cnc(C)c2oc1=N
The “hERG current change (%, negative = inhibition) at 1uM” value of the first is lower: 7.52% for the first, 10.2% for the second.

Going from `COc1c(Cl)cc(Cl)cc1CNCc1ccccc1.Cl` to `CN(Cc1ccccc1)S(=O)(=O)c1ccc(Cl)c(C(=O)NCc2ccc3c(c2)OCO3)c1`, the “hERG current change (%, negative = inhibition) at 1uM” value rises from 2.49% to 10.8%.

First: CCCN1C=CC(=C2C(=O)c3ccccc3C2=O)C=C1
Second: CC(=O)Nc1cccc2c1C(=O)N(c1ccccc1OC(C)=O)C2=O
The “hERG current change (%, negative = inhibition) at 1uM” value of the first is lower: 13.6% for the first, 23.8% for the second.

Going from `Cc1cc(C)c2c(n1)sc1c(=O)n(Cc3ccc(F)cc3)cnc12` to `CCc1nc(C)cn1S(=O)(=O)c1cc(C)c(OC)c(C)c1C`, the “hERG current change (%, negative = inhibition) at 1uM” value falls from 10.5% to 1.85%.

Compared with `CCOc1ccc(N)cc1OC.Cl`, `C=CCOc1ccc(/C=N/NC(C)=O)cc1OCC` is lower in “hERG current change (%, negative = inhibition) at 1uM” value: 15.6% for the first, 6.06% for the second.

Compared with `CCCN[C@H]1CCc2nc(N)sc2C1`, `CCCCn1c(SCC(=O)NC2CC(C)(C)NC(C)(C)C2)nc2cc(S(N)(=O)=O)ccc21.Cl` is lower in “hERG current change (%, negative = inhibition) at 1uM” value: -1.58% for the first, -3.2% for the second.

First: Cc1ccc(C(=O)CSC2=NC(N)=C(C#N)C3(CCCCC3)C2C(N)=O)cc1 (stereo not drawn)
Second: Cc1ccc(SC(C)C(=O)N2CCC(C(N)=O)CC2)cc1 (stereo not drawn)
The “hERG current change (%, negative = inhibition) at 1uM” value of the first is lower: -14.2% for the first, 13.4% for the second.

Compared with `Cc1ccc2cc(-c3noc(C4CCCO4)n3)c(=O)[nH]c2c1` (stereo not drawn), `Cc1ccc(NC(=O)Nc2ccc(Cl)cc2)c(Br)c1` is lower in “hERG current change (%, negative = inhibition) at 1uM” value: 6.45% for the first, 5.94% for the second.

Going from `COc1ccc(C(c2sc3ncnn3c2O)N2CCN(c3ccccc3F)CC2)cc1OC` (stereo not drawn) to `CCC(C)c1ccccc1N1CC(C(=O)Nc2ccccc2N2CCCC2)CC1=O` (stereo not drawn), the “hERG current change (%, negative = inhibition) at 1uM” value rises from 4.87% to 9.33%.

Going from `Cc1cccc(S(=O)(=O)Nc2ccncc2)c1` to `CCc1ccc(S(=O)(=O)Nc2ccc(-c3ccc4nncn4n3)cc2)s1`, the “hERG current change (%, negative = inhibition) at 1uM” value falls from 19% to 8.42%.

First: O=C(O)CSC(=S)N1CCCCC1
Second: CCCc1nnc(SCC(=O)N2CCCC(C)C2)n1CCOC (stereo not drawn)
The “hERG current change (%, negative = inhibition) at 1uM” value of the first is lower: 8.96% for the first, 14.1% for the second.

Going from `O=C(CN1C(=O)C2CC=CCC2C1=O)OCC(=O)c1ccc(Cl)c([N+](=O)[O-])c1` (stereo not drawn) to `Cc1cc(=O)oc2cc(OC(C)C(=O)NCC3CCC(C(=O)O)CC3)c(Cl)cc12` (stereo not drawn), the “hERG current change (%, negative = inhibition) at 1uM” value falls from 12% to 9.39%.

Compared with `c1ccc(-c2nnc(-c3ccco3)n2-c2ccccc2)cc1`, `N#CCCN(C(=O)Nc1ccccc1)c1ccccc1` is higher in “hERG current change (%, negative = inhibition) at 1uM” value: 10.2% for the first, 14.1% for the second.

First: Cc1ccccc1C(=O)NNC(=O)C1CCCN(c2ncccn2)C1 (stereo not drawn)
Second: Cc1nn(C(C)C(=O)NCCN2CCCCCC2)c(=O)c2nn(-c3ccccc3)c(C)c12 (stereo not drawn)
The “hERG current change (%, negative = inhibition) at 1uM” value of the first is lower: 6.51% for the first, 14.9% for the second.

First: CCn1ccnc1CN1CCN(CC=C(C)C)C(CCO)C1 (stereo not drawn)
Second: CCCn1c(=O)c2c(nc3n2CCN3Cc2ccco2)n(C)c1=O
The “hERG current change (%, negative = inhibition) at 1uM” value of the first is higher: 9.77% for the first, 3.87% for the second.

First: CC(C)n1c(O)c(N=NC(=O)Cn2ccc(C(F)(F)F)n2)c2ccccc21
Second: CCO/C(C)=C1\C(=O)Nc2ccccc21
The “hERG current change (%, negative = inhibition) at 1uM” value of the first is higher: 15% for the first, 13.1% for the second.

Compared with `Cn1cnc2c(=O)[nH]cc([N+](=O)[O-])c21.O`, `O=C(NNC(=O)C12CC3CC(CC(C3)C1)C2)[C@@H]1C[C@H]1c1ccccc1` is lower in “hERG current change (%, negative = inhibition) at 1uM” value: 12.2% for the first, 11.5% for the second.
